# According to the supplement of paper PMC8748497:
# “And” between values parts separate entries of the source, which are not always exact repeats. Equal values may be shown once. This is one part of the list.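 Rule for the calls: active = GRHL reporter fold change of at least 2 over DMSO at 10 µM; inactive = below 2-fold.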 Single values are uncertain, as repeats are few or missing.
# System: HEK293 GRHL-luciferase reporter
# Assay: GRHL luciferase reporter activity, fold change over DMSO control; higher = stronger GRHL reporter activation
# Details: 10 µM; 24 h
# 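Note: stable HEK293 line carrying repeated GRHL consensus sites upstream of a minimal promoter driving luciferase, luminescence read 24 h post-treatment, normalized to 0.5% DMSO vehicle wells.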
row,Compound,GRHL luciferase reporter activity
1,[O-][n+]1ccccc1[S-].[O-][n+]1ccccc1[S-].[Zn+2],inactive: 1.44
2,COc1cc2c(cc1OC)C1CC(=O)C(CC(C)C)CN1CC2 (centres undefined),inactive: 0.848
3,C[C@]12CC[C@H](O)C[C@H]1CC[C@@H]1[C@@H]2CC[C@]2(C)[C@@H](C3=CC(=O)OC3)[C@@H](O)C[C@]12O,inactive: 1.01
4,CC1(C)C(C=C(Cl)Cl)C1C(=O)OCc1cccc(Oc2ccccc2)c1 (centres undefined),inactive: 1.2
5,O=[N+]([O-])C(Br)(CO)CO,inactive: 1.04
6,CC1(C)C(=O)C=C[C@@]2(C)C1=C(O)C(=O)[C@]1(C)[C@@H]2CC[C@@]2(C)[C@H](c3ccoc3)C[C@H]3O[C@]321,inactive: 0.0338
7,CCCC(C)C1(CC)C(=O)NC(=S)NC1=O (centres undefined),inactive: 0.871
8,NCCc1cc(O)c(O)cc1O,inactive: 1.19
9,C[C@H](N)[C@H](O)c1ccccc1,inactive: 1.01
10,COc1ccc(CN2CCNCC2)c(OC)c1OC,inactive: 0.977
11,CC1=NCCc2c1[nH]c1cc(O)ccc21,inactive: 0.686 and inactive: 0.505
12,CC[C@H]1[C@@H]2C[C@H]3[C@@H]4N(C)c5ccccc5[C@]45C[C@@H]([C@@H]2[C@H]5O)N3[C@@H]1O,inactive: 0.785
13,CC(=O)NC1CCSC1=O (centres undefined),inactive: 1.11
14,O=C1CN=C(c2ccccc2Cl)c2cc([N+](=O)[O-])ccc2N1,inactive: 1.12
15,NCC1(CC(=O)O)CCCCC1,inactive: 0.98
16,CCC1(CC)C(=O)NC(=O)NC1=O,inactive: 1.01
17,Cc1cc(C(C#N)c2ccc(Cl)cc2)c(Cl)cc1NC(=O)c1cc(I)cc(I)c1O (centres undefined),inactive: 0.929
18,Oc1cc(Cl)ccc1Oc1ccc(Cl)cc1Cl,inactive: 1.3
19,O=C1C[C@@H]2OCC=C3CN4CC[C@]56c7ccccc7N1[C@H]5[C@H]2[C@H]3C[C@H]46,inactive: 0.889
20,Nc1ncn[nH]1,inactive: 1.04

row,Compound,GRHL luciferase reporter activity
1,CCCCC(C#N)(Cn1cncn1)c1ccc(Cl)cc1 (centres undefined),inactive: 1.36
2,CC(C)=CC1C(C(=O)OCc2cccc(Oc3ccccc3)c2)C1(C)C (centres undefined),inactive: 1.25
3,C=CCc1cc(OC)c2c(c1OC)OCO2,inactive: 1.45
4,C#CC(C)(O)CC (centres undefined),inactive: 1.07
5,CCNC1(c2cccs2)CCCCC1=O (centres undefined),inactive: 0.93
6,C[C@]12CCC(=O)C=C1C=C[C@@H]1[C@@H]2CC[C@@]2(C)[C@H]1CC[C@@]2(O)CCC(=O)O,inactive: 1.01
7,O=c1c(O)c(-c2ccc(O)c(O)c2)oc2c(O)c(O)cc(O)c12,inactive: 1.02
8,CC(=O)[O][Hg][c]1ccccc1,inactive: -0.0105
9,CCN(CC)CCOC(=O)C(O)(c1ccccc1)c1ccccc1,inactive: 0.869
10,CCCCOC(=O)c1ccccc1C(=O)OCCCC,inactive: 0.904
11,Nc1ccncc1,inactive: 0.918
12,Cc1cnc[nH]1,inactive: 1.06
13,CCC1(C2=NCCN2)Cc2ccccc2O1 (centres undefined),inactive: 0.916
14,O=C1C=CC(=O)c2ccccc21,active: 7.22
15,COc1cc2c(c(OC)c1OC)-c1ccc(O)c(=O)cc1[C@@H](N)CC2,inactive: 0.941
16,CC1=CC(=O)c2c(O)cccc2C1=O,inactive: 0.0693
17,CN1CCc2cc3c(cc2[C@H]1[C@@H]1OC(=O)c2c1ccc1c2OCO1)OCO3,inactive: 0.989
18,CN1C(=O)C(O)N=C(c2ccccc2)c2cc(Cl)ccc21 (centres undefined),inactive: 1.18
19,N=C(N)NN,inactive: 0.99 and inactive: 0.856
